# In PubChem BioAssay AID1346428 (National Center for Advancing Translational Sciences (NCATS), 2018):
# Where “and” joins values, the source holds several entries; their conditions need not be identical. Equal values may be shown once. Hit rate of the full screen: of about 48,000 compounds, about 1,200 (2.5%) were called active. Another 2% or so got no clear call; they are omitted.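 How the source made its calls: active means activation of at least 60% and not above a set upper limit (about 1 call in 100 departs from these limits); inconclusive means activation of 40% to 60%, or above that upper limit; inactive means activation under 40%.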 The list shows a part of the results.
# Target: Probable G-protein coupled receptor 32 (Homo sapiens) (UniProt O75388)
# Experiment: qHTS for Agonists of Human Resolvin D1 Receptor DRV1; further: 0% is about no effect
# Settings: CHO-K1 GPR32 beta-arrestin PathHunter luminescence, 90 min; at 76.9 µM; active compounds read high; zero percent set by DMSO-only wells
# Method in brief: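 Beta-arrestin recruitment read-out: luminescence from complemented beta-Gal in CHO-K1 GPR32 PathHunter cells, measured 1 h after detection reagent at ambient temperature following 90 min compound exposure at 37 °C; DMSO served as basal (EC0) control.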
# UniProt O75388, sequence (O75388 whole entry, looked up): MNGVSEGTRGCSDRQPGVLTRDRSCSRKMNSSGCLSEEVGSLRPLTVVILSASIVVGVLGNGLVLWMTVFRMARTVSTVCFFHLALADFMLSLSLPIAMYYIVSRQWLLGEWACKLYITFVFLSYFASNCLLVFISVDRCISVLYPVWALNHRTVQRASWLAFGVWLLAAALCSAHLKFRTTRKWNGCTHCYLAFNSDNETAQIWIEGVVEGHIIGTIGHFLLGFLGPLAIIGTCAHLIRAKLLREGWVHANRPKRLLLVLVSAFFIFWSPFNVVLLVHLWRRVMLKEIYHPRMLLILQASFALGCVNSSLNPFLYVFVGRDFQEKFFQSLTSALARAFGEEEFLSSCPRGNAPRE
row,SMILES,activation
1,Cc1ccc(C(C)C)c(OCC(=O)Nc2c(C(=O)c3ccccc3)oc3ccccc23)c1,inactive: -0.841%
2,CCCCOc1c(Cl)cc(C(=O)N(Cc2ccc(C)o2)C2CCS(=O)(=O)C2)cc1Cl (configuration not stated),inactive: 49.2%
3,COc1ccc(S(=O)(=O)N2CCC(c3ccncc3)CC2)cc1Cl,inactive: 41.4%
4,CN(C(=O)c1cc(-c2ccccc2O)on1)c1ccccc1,inactive: 3.47%
5,CSc1ccc(CCNc2ncnc3onc(C)c23)cc1,inactive: 32.6%
6,Cc1cc(C)c2oc(C(=O)N(Cc3ccc(F)cc3)C3CCS(=O)(=O)C3)cc(=O)c2c1 (configuration not stated),inactive: -15.4%
7,CCOc1ccc(/C=C(\C#N)c2nc(-c3cc4ccccc4oc3=O)cs2)c(OCC)c1,inactive: -3.12%
8,CCN1CCN(C(c2ccc(OC)cc2)c2c(O)cc(C)n(CCOC)c2=O)CC1 (configuration not stated),inactive: -15.1%
9,CCOC(=O)c1c(C)oc2ccc(N(C(=O)Oc3ccccc3)S(=O)(=O)c3ccccc3)cc12,inactive: -2.81%
10,CN(C(=O)Cn1c(=O)n(CCCS(=O)(=O)C2CCCCC2)c(=O)c2ccccc21)c1ccccc1,inactive: -22.4%
11,COc1ccccc1NC(=O)c1c(NCc2sccc2C)sc2c1CCCCC2,inactive: -10.1%
12,COc1ccc(C(CNC(=O)COc2ccc(C)cc2)N2CCCCC2)cc1 (configuration not stated),inactive: 1.91%
13,COc1ccc2c(CNCc3ccc(C)o3)c(C(=O)O)n(Cc3ccccc3)c2c1,inactive: 13.2%
14,O=C(Cn1c(=O)oc2ccccc21)NCc1cccc(Cl)c1,inactive: -3.91%
15,COc1ccc(C2C=C(c3ccccc3)Nc3nc(NC(=O)c4ccc(C)cc4)nn32)cc1 (configuration not stated),inactive: 0.122%
16,Cc1cc(C)cc(N(CC(=O)Nc2cccc(C)c2C)S(=O)(=O)c2c(C)[nH]c(=O)[nH]c2=O)c1,inactive: -1.16%
17,Cc1cccc(CCNC(=O)c2cc3ccccn3n2)c1,active: 101%
18,COc1ccc(Cl)cc1NC(=O)Cn1c2ncccc2c(=O)n1-c1ccc(C)c(C)c1,inactive: -4.65%
19,CCOc1cc(-c2nc(-c3ccc(-c4ccc(C)cc4)nc3OC)no2)cc(OCC)c1OCC,inactive: 3.75%
20,COC(=O)c1ccc(Cl)cc1NC(=O)N1CC(C)Oc2ccccc21 (configuration not stated),inactive: -34.6%
21,Cc1ccc(-n2nc3c(=O)n(CC(=O)Nc4ccccc4F)nc(C)c3c2C)c(C)c1,inactive: -13.3%

row,SMILES,activation
1,Cc1cc(NS(=O)(=O)c2ccc(NC(=O)COc3ccc(Cl)cc3)cc2)nc(C)n1,inactive: 9.65%
2,Cc1ccc(NC(=O)Nc2nnc(N(C)Cc3ccccc3)s2)cc1,inactive: -10.8%
3,CCOC(=O)c1noc2ncnc(N(CCC(=O)OC)c3ccccc3)c12,inactive: 8.23%
4,CCOC(=O)c1noc2ncnc(Nc3ccc(C)c(F)c3)c12,inactive: 1.99%
5,CN1CCN(CCCNC(=O)Cn2c(-c3cccs3)cc3ccccc32)CC1,inactive: 14%
6,Cc1ccc2c(c1)sc1nc(=O)n(-c3ccc(Cl)cc3)c(=O)n12,inactive: 16.8%
7,COc1ccc(OC)c(C2CC(=O)c3c([nH]c(C(=O)OC4CCC(C)CC4)c3C)C2)c1 (configuration not stated),inactive: -12%
8,COc1cc(NC(=O)c2cc(-c3ccc4c(c3)OCO4)on2)cc(OC)c1OC,inactive: 34%
9,COc1ccc(-c2cc(C)no2)cc1S(=O)(=O)NCc1ccc(OC(C)C)cc1,inactive: -8.01%
10,COc1ccc(N2CCN(CCCNC(=O)C3COc4ccc(OC)cc4C3)CC2)cc1 (configuration not stated),inactive: -11.7%
11,CCc1cccc2c(-c3ccccc3)nc(SCC(=O)Nc3ccccc3)nc12,inactive: -12.4%
12,COc1ccc2c(CNCc3ccc(Cl)cc3)c(C(=O)O)n(Cc3ccccc3C)c2c1,inactive: -8.47%
13,Cc1cccc(Nc2nnc(-n3nc(C)cc3C)c3ccccc23)c1,inactive: 2.33%
14,O=C(Cn1cc(SCc2ccc(C(F)(F)F)cc2)c2ccccc21)N1CCCCC1,inactive: -26.1%
15,CC(CC(=O)NCc1ccc(Cl)cc1)CC1=NS(=O)(=O)c2ccccc2N1 (configuration not stated),inactive: 2.96%
16,COc1ccc(NC(=O)c2cnn(-c3ccc(C)cc3)c2-n2cccc2)cc1Cl,inactive: -17.3%
17,Cc1c(-c2nsc(NC(=O)c3ccc(Cl)cc3)n2)nnn1-c1ccc(C(C)C)cc1,inactive: 1.46%
18,CC(=O)c1ccc(N2CCN(c3nc4c(S(=O)(=O)c5ccccc5)nnn4c4ccc(Cl)cc34)CC2)cc1,inactive: -5.7%
19,COc1ccc(S(=O)(=O)c2cn(C)c3cc(N4CCCCC4)c(F)cc3c2=O)cc1,inactive: 1.86%
20,O=C(NC1CC(=O)N(c2ccccc2)C1)C1CCCCC1 (configuration not stated),inactive: 2.87%
21,Cc1cc(Br)ccc1NC(=O)c1cc2c(=O)n(C)c3cc(Cl)ccc3c2s1,inactive: 15.4%

row,SMILES,activation
1,Cc1cc(C)cc(NC(=O)CSc2nccn2-c2ccccc2)c1,inactive: -6.13%
2,Cc1cccc2nc(-c3cccnc3)c(Nc3ccc(C(C)C)cc3)n12,active: 61.3%
3,COc1ccc(NC(=O)C2=C(C)Nc3nc(SCc4ccccc4C)nn3C2c2ccc(Br)cc2)cc1 (configuration not stated),inactive: 2.9%
4,NCCCC[C@H](N[C@@H](CCc1ccccc1)C(=O)O)C(=O)N1CCC[C@H]1C(=O)O,inactive: 20%
5,Cc1cccc(NC(=O)C2CCN(S(=O)(=O)c3cccc4nsnc34)CC2)c1C,inactive: 10.2%
6,Cc1ccc(-c2noc(CNC(=O)c3ccc(C(C)(C)C)cc3)n2)cc1,inactive: -14.9%
7,COC(=O)c1cc2oc3ccccc3c2n1CC(=O)Nc1ccc(OC)c(OC)c1OC,inactive: -3.86%
8,COc1ccccc1CNC(=O)CN1C(=O)CSc2ccc(S(=O)(=O)N3CCCC3)cc21,inactive: -25.1%
9,c1ccc2c(c1)CCC[C@H]2Nc1nc2ccccc2[nH]1,inactive: 6.6%
10,CC(C)Oc1ccc(CNC(=O)C2CCN(C(=O)c3sccc3-n3cccc3)CC2)cc1,inactive: -12.1%
11,CC(C)OCCCN(Cc1ccco1)C(=O)c1cc2c(s1)-c1ccccc1OC2,inactive: 19.7%
12,COCc1cc(C)n(CC(=O)Nc2ccc(NC(C)=O)cc2)c(=O)c1C#N,inactive: 4.96%
13,CCN(CC)C(=O)Cn1cc(SCC(=O)Nc2cccc(C)c2)c2ccccc21,inactive: -16.9%
14,CC1=C(C#N)C(NC(=O)c2cccc(Cl)c2)(C(F)(F)F)C(=O)N1 (configuration not stated),inactive: -29.4%
15,COc1ccccc1-c1noc(-c2ccc(N3CCN(c4ccccc4)CC3)c([N+](=O)[O-])c2)n1,inactive: 6.98%
16,COc1ccc(N2CCN(c3cc(C)nc4nc(-c5ccc(C)cc5)nn34)CC2)cc1,inactive: -1.02%
17,Cc1cccc(C(=O)N2CCc3cc(CNC(=O)CCc4ccccc4)ccc32)c1,inactive: -6.09%
18,Cc1ccc(Cl)cc1NC(=O)N1CCN(C)c2ncccc21,inactive: -3.94%
19,Cc1ccc(S(=O)(=O)c2cn(C)c3cc(N4CCN(C)CC4)c(F)cc3c2=O)cc1,inactive: -0.155%
20,O=C(CSc1ncc2c(n1)-c1ccccc1N(Cc1ccc(F)cc1)S2(=O)=O)c1ccc(Cl)cc1,inactive: -3.02%
21,CCc1cc2c(cc3c(=O)n(CC(=O)N4CCN(c5cc(Cl)ccc5C)CC4)ncn32)s1,inactive: 6.02%

row,SMILES,activation
1,CCOCCOC(=O)c1ccc(NC(=O)/C=C/c2ccc(OC)c(OC)c2)cc1,inactive: 12.1%
2,COc1ccc(Nc2c(-c3cc(Br)ccc3O)nc3ncccn23)cc1OC,inactive: -32.2%
3,COc1ccccc1C(=O)Nc1cc2c(cc1N1CCCCC1)n(C)c(=O)n2C,inactive: -4.37%
4,Cc1cccc(C)c1-n1ncc(C(=O)Nc2ccc3c(c2)OCCO3)c1C1CCN(C(=O)OC(C)(C)C)CC1,inactive: -3.35%
5,Cc1ccc(NCc2cccn2-c2nnc(N3CCC(C(=O)NCc4ccc(OC(C)C)cc4)CC3)s2)cc1,inactive: -25.8%
6,CNS(=O)(=O)c1ccc(OC)c(-c2nnc3c4ccccc4c(C)nn23)c1,inactive: -4.53%
7,COc1ccccc1N1CCN(S(=O)(=O)c2c(C)sc3ncn(CC(=O)N(C)c4ccc(C(C)C)cc4)c(=O)c23)CC1,inactive: -16.6%
8,COc1ccccc1N1CCN(C(=O)Cn2ncc3c(=O)oc4ccccc4c32)CC1,inactive: 16.9%
9,Cc1cccc(N2CCN(S(=O)(=O)c3ccc4c(c3)CCCN4C(=O)C3CCC3)CC2)c1C,inactive: -25.3%
10,C[C@]12CCC(=O)C=C1CC[C@@H]1[C@@H]2[C@@H](O)C[C@@]2(C)[C@H]1CC[C@]2(O)C(=O)COC(=O)CCC(=O)O,inactive: 23.6%
11,CCN(CC)c1ccc(NC(=O)C(Cc2ccccc2)NS(=O)(=O)c2ccc(Br)s2)c(C)c1 (configuration not stated),inactive: -8.62%
12,O=C(Nc1ccc(C(=O)OCc2cc(=O)n3nc(C4CC4)sc3n2)cc1)c1ccc(F)cc1,inactive: -16.4%
13,Cc1nc(N2CCCC2)c2c(C(=O)Nc3cccc(C)c3C)c(C)oc2n1,inactive: -8.79%
14,O=C(Nc1cccc(Cl)c1)c1c(NC(=O)C(F)(F)F)sc2c1CCCC2,inactive: 37.2%
15,CC(=O)Nc1cccc(NC(=O)Cn2cnc3c2c(=O)n(C)c(=O)n3C)c1,inactive: 15.1%
16,COc1ccc(CCNCc2c(C(=O)O)c(C)n(Cc3ccccc3C)c2C)c(OC)c1,inactive: -31.8%
17,CC(C)(C)NC[C@H](O)COc1nsnc1N1CCOCC1,inactive: -5.92% and inactive: -2.75%
18,COc1cc(OC)c(NC(=O)COCc2cc(-c3cccs3)on2)cc1Cl,inactive: -13.9%
19,CCOc1ccccc1N(C)C(=O)Cn1cnc2sc(C)c(S(=O)(=O)N3CCC(C)CC3)c2c1=O,inactive: -4.11%
